# Reference: the supplement of paper PMC8728848
# This is one part of the list.
# B1: Langerin K313I (Homo sapiens), Q9UJ71 (protein)
# chain: STLNAQIPELKSDLEKASALNTKIRALQGSLENMSKLLKRQNDILQVVSQGWKYFKGNFYYFSLIPKTWYSAEQFCVSRNSHLTSVTSESEQEFLYKTAGGLIYWIGLTKAGMEGDWSWVDDTPFNKVQSARFWIPGEPNNAGNNEHCGNIKAPSLQAWNDAPCDITFLFICKRPYVPSEP
# Tests used:
# Assay in all cases: glycan array binding signal (z-score within array); higher = stronger binding
# Conditions in all cases: glycan notation: IUPAC condensed, linker removed
# [1] = molecular target: Neu5Ac(a2-3)Gal(b1-3)GalNAc
# Procedure, shortened: (§1)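 Arrays were curated from the Consortium for Functional Glycomics database, 3228 in total, and kept only where the protein sequence was available. Binding is expressed as a within-array Z-score. This score was averaged across arrays of the same protein sequence at different concentrations or buffers and across linkers, and negative values can be read as non-binding.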
# [2] = molecular target: Neu5Ac(a2-3)Gal(b1-3)GalNAc(b1-3)Gal(a1-4)Gal(b1-4)Glc
# Procedure, shortened: as §1
# [3] = molecular target: Neu5Ac(a2-3)Gal(b1-3)GalNAc(b1-4)[Neu5Ac(a2-3)]Gal(b1-4)Glc
# Procedure, shortened: as §1
# [4] = molecular target: Neu5Ac(a2-3)Gal(b1-3)GalNAc(b1-4)[Neu5Ac(a2-8)Neu5Ac(a2-3)]Gal(b1-4)Glc
# Procedure, shortened: as §1
# [5] = molecular target: Neu5Ac(a2-3)Gal(b1-3)GalNAc6S
# Procedure, shortened: as §1
# [6] = molecular target: Neu5Ac(a2-3)Gal(b1-3)GlcNAc
# Procedure, shortened: as §1
# [7] = molecular target: Neu5Ac(a2-3)Gal(b1-3)GlcNAc(b1-2)Man
# Procedure, shortened: as §1
# [8] = molecular target: Neu5Ac(a2-3)Gal(b1-3)GlcNAc(b1-2)Man(a1-3)[GlcNAc(b1-4)][Neu5Ac(a2-3)Gal(b1-3)GlcNAc(b1-2)Man(a1-6)]Man(b1-4)GlcNAc(b1-4)GlcNAc
# Procedure, shortened: as §1
# [9] = molecular target: Neu5Ac(a2-3)Gal(b1-3)GlcNAc(b1-2)Man(a1-3)[Neu5Ac(a2-3)Gal(b1-3)GlcNAc(b1-2)Man(a1-6)]Man(b1-4)GlcNAc(b1-4)GlcNAc
# Procedure, shortened: as §1
# [10] = molecular target: Neu5Ac(a2-3)Gal(b1-3)GlcNAc(b1-3)Gal(b1-3)GlcNAc
# Procedure, shortened: as §1
# [11] = molecular target: Neu5Ac(a2-3)Gal(b1-3)GlcNAc(b1-3)Gal(b1-4)GlcNAc
# Procedure, shortened: as §1
# [12] = molecular target: Neu5Ac(a2-3)Gal(b1-3)GlcNAc(b1-3)GalNAc
# Procedure, shortened: as §1
# [13] = molecular target: Neu5Ac(a2-3)Gal(b1-3)GlcNAc(b1-4)Gal(b1-4)Glc
# Procedure, shortened: as §1
# [14] = molecular target: Neu5Ac(a2-3)Gal(b1-3)GlcNAc(b1-6)GalNAc
# Procedure, shortened: as §1
# [15] = molecular target: Neu5Ac(a2-3)Gal(b1-3)GlcNAc6S
# Procedure, shortened: as §1
# [16] = molecular target: Neu5Ac(a2-3)Gal(b1-3)[Fuc(a1-4)]GlcNAc
# Procedure, shortened: as §1
# [17] = molecular target: Neu5Ac(a2-3)Gal(b1-3)[Fuc(a1-4)]GlcNAc(b1-3)Gal(b1-3)[Fuc(a1-4)]GlcNAc
# Procedure, shortened: as §1
# [18] = molecular target: Neu5Ac(a2-3)Gal(b1-3)[Fuc(a1-4)]GlcNAc(b1-3)Gal(b1-4)[Fuc(a1-3)]GlcNAc
# Procedure, shortened: as §1
# [19] = molecular target: Neu5Ac(a2-3)Gal(b1-3)[GlcNAc(b1-6)]GalNAc
# Procedure, shortened: as §1
# [20] = molecular target: Neu5Ac(a2-3)Gal(b1-3)[Neu5Ac(a2-6)]GalNAc
# Procedure, shortened: as §1
# [21] = molecular target: Neu5Ac(a2-3)Gal(b1-3)[Neu5Ac(a2-6)]GlcNAc(b1-3)[Fuc(a1-3)[Gal(b1-4)]GlcNAc(b1-6)]Gal(b1-4)Glc
# Procedure, shortened: as §1
# [22] = molecular target: Neu5Ac(a2-3)Gal(b1-3)]Neu5Ac(a2-3)Gal(b1-4)]GlcNAc
# Procedure, shortened: as §1
# [23] = molecular target: Neu5Ac(a2-3)Gal(b1-4)Glc
# Procedure, shortened: as §1
# [24] = molecular target: Neu5Ac(a2-3)Gal(b1-4)GlcNAc
# Procedure, shortened: as §1
# [25] = molecular target: Neu5Ac(a2-3)Gal(b1-4)GlcNAc(b1-2)Man
# Procedure, shortened: as §1
# [26] = molecular target: Neu5Ac(a2-3)Gal(b1-4)GlcNAc(b1-2)Man(a1-3)[GlcNAc(b1-4)][Neu5Ac(a2-3)Gal(b1-4)GlcNAc(b1-2)Man(a1-6)]Man(b1-4)GlcNAc(b1-4)GlcNAc
# Procedure, shortened: as §1
# [27] = molecular target: Neu5Ac(a2-3)Gal(b1-4)GlcNAc(b1-2)Man(a1-3)[Neu5Ac(a2-3)Gal(b1-4)GlcNAc(b1-2)Man(a1-6)]Man(b1-4)GlcNAc(b1-4)GlcNAc
# Procedure, shortened: as §1
# [28] = molecular target: Neu5Ac(a2-3)Gal(b1-4)GlcNAc(b1-2)Man(a1-3)[Neu5Ac(a2-3)Gal(b1-4)GlcNAc(b1-2)Man(a1-6)]Man(b1-4)GlcNAc(b1-4)[Fuc(a1-6)]GlcNAc
# Procedure, shortened: as §1
# [29] = molecular target: Neu5Ac(a2-3)Gal(b1-4)GlcNAc(b1-2)Man(a1-3)[Neu5Ac(a2-6)Gal(b1-4)GlcNAc(b1-2)Man(a1-6)]Man(b1-4)GlcNAc(b1-4)GlcNAc
# Procedure, shortened: as §1
# [30] = molecular target: Neu5Ac(a2-3)Gal(b1-4)GlcNAc(b1-2)[Neu5Ac(a2-3)Gal(b1-4)GlcNAc(b1-4)]Man(a1-3)[GlcNAc(b1-4)][Neu5Ac(a2-3)Gal(b1-4)GlcNAc(b1-2)[Neu5Ac(a2-3)Gal(b1-4)GlcNAc(b1-6)]Man(a1-6)]Man(b1-4)GlcNAc(b1-4)GlcNAc
# Procedure, shortened: as §1
# [31] = molecular target: Neu5Ac(a2-3)Gal(b1-4)GlcNAc(b1-2)[Neu5Ac(a2-3)Gal(b1-4)GlcNAc(b1-4)]Man(a1-3)[GlcNAc(b1-4)][Neu5Ac(a2-3)Gal(b1-4)GlcNAc(b1-4)Man(a1-6)]Man(b1-4)GlcNAc(b1-4)GlcNAc
# Procedure, shortened: as §1
# [32] = molecular target: Neu5Ac(a2-3)Gal(b1-4)GlcNAc(b1-2)[Neu5Ac(a2-3)Gal(b1-4)GlcNAc(b1-6)]Man(a1-6)[Neu5Ac(a2-3)Gal(b1-4)GlcNAc(b1-2)Man(a1-3)]Man(b1-4)GlcNAc(b1-4)GlcNAc
# Procedure, shortened: as §1
# [33] = molecular target: Neu5Ac(a2-3)Gal(b1-4)GlcNAc(b1-2)[Neu5Ac(a2-3)Gal(b1-4)GlcNAc(b1-6)]Man(a1-6)[Neu5Ac(a2-3)Gal(b1-4)GlcNAc(b1-2)Man(a1-3)][GlcNAc(b1-4)]Man(b1-4)GlcNAc(b1-4)GlcNAc
# Procedure, shortened: as §1
# [34] = molecular target: Neu5Ac(a2-3)Gal(b1-4)GlcNAc(b1-3)Gal
# Procedure, shortened: as §1
# [35] = molecular target: Neu5Ac(a2-3)Gal(b1-4)GlcNAc(b1-3)Gal(b1-3)GlcNAc
# Procedure, shortened: as §1
# [36] = molecular target: Neu5Ac(a2-3)Gal(b1-4)GlcNAc(b1-3)Gal(b1-4)GlcNAc
# Procedure, shortened: as §1
# [37] = molecular target: Neu5Ac(a2-3)Gal(b1-4)GlcNAc(b1-3)Gal(b1-4)GlcNAc(b1-2)Man(a1-3)[Neu5Ac(a2-3)Gal(b1-4)GlcNAc(b1-3)Gal(b1-4)GlcNAc(b1-2)Man(a1-6)]Man(b1-4)GlcNAc(b1-4)GlcNAc
# Procedure, shortened: as §1
# [38] = molecular target: Neu5Ac(a2-3)Gal(b1-4)GlcNAc(b1-3)Gal(b1-4)GlcNAc(b1-3)Gal(b1-4)GlcNAc
# Procedure, shortened: as §1
# [39] = molecular target: Neu5Ac(a2-3)Gal(b1-4)GlcNAc(b1-3)Gal(b1-4)GlcNAc(b1-3)Gal(b1-4)GlcNAc(b1-2)Man(a1-3)[Neu5Ac(a2-3)Gal(b1-4)GlcNAc(b1-3)Gal(b1-4)GlcNAc(b1-3)Gal(b1-4)GlcNAc(b1-2)Man(a1-6)]GalNAc
# Procedure, shortened: as §1
# [40] = molecular target: Neu5Ac(a2-3)Gal(b1-4)GlcNAc(b1-3)Gal(b1-4)GlcNAc(b1-3)GalNAc
# Procedure, shortened: as §1
# [41] = molecular target: Neu5Ac(a2-3)Gal(b1-4)GlcNAc(b1-3)Gal(b1-4)GlcNAc(b1-3)[Neu5Ac(a2-3)Gal(b1-4)GlcNAc(b1-3)Gal(b1-4)GlcNAc(b1-6)]GalNAc
# Procedure, shortened: as §1
# [42] = molecular target: Neu5Ac(a2-3)Gal(b1-4)GlcNAc(b1-3)Gal(b1-4)GlcNAc(b1-6)[Gal(b1-3)]GalNAc
# Procedure, shortened: as §1
# [43] = molecular target: Neu5Ac(a2-3)Gal(b1-4)GlcNAc(b1-3)Gal(b1-4)[Fuc(a1-3)]GlcNAc
# Procedure, shortened: as §1
# [44] = molecular target: Neu5Ac(a2-3)Gal(b1-4)GlcNAc(b1-3)GalNAc
# Procedure, shortened: as §1
# [45] = molecular target: Neu5Ac(a2-3)Gal(b1-4)GlcNAc(b1-3)[Neu5Ac(a2-3)Gal(b1-4)GlcNAc(b1-6)]GalNAc
# Procedure, shortened: as §1
binder,measurement,setting,value
B1,glycan array binding signal (z-score),[1],-0.279
same,glycan array binding signal (z-score),[2],-0.307
same,glycan array binding signal (z-score),[3],-0.29
same,glycan array binding signal (z-score),[4],-0.134
same,glycan array binding signal (z-score),[5],-0.352
same,glycan array binding signal (z-score),[6],-0.339
same,glycan array binding signal (z-score),[7],0.248
same,glycan array binding signal (z-score),[8],-0.131
same,glycan array binding signal (z-score),[9],0.123
same,glycan array binding signal (z-score),[10],-0.309
same,glycan array binding signal (z-score),[11],-0.387
same,glycan array binding signal (z-score),[12],-0.261
same,glycan array binding signal (z-score),[13],-0.191
same,glycan array binding signal (z-score),[14],0.005
same,glycan array binding signal (z-score),[15],-0.361
same,glycan array binding signal (z-score),[16],-0.412
same,glycan array binding signal (z-score),[17],0.117
same,glycan array binding signal (z-score),[18],0.383
same,glycan array binding signal (z-score),[19],-0.289
same,glycan array binding signal (z-score),[20],-0.044
same,glycan array binding signal (z-score),[21],-0.347
same,glycan array binding signal (z-score),[22],-0.394
same,glycan array binding signal (z-score),[23],-0.095
same,glycan array binding signal (z-score),[24],-0.341
same,glycan array binding signal (z-score),[25],0.555
same,glycan array binding signal (z-score),[26],-0.345
same,glycan array binding signal (z-score),[27],-0.321
same,glycan array binding signal (z-score),[28],0.123
same,glycan array binding signal (z-score),[29],-0.355
same,glycan array binding signal (z-score),[30],-0.368
same,glycan array binding signal (z-score),[31],-0.382
same,glycan array binding signal (z-score),[32],0.056
same,glycan array binding signal (z-score),[33],-0.36
same,glycan array binding signal (z-score),[34],-0.394
same,glycan array binding signal (z-score),[35],-0.315
same,glycan array binding signal (z-score),[36],-0.396
same,glycan array binding signal (z-score),[37],-0.019
same,glycan array binding signal (z-score),[38],-0.27
same,glycan array binding signal (z-score),[39],0.363
same,glycan array binding signal (z-score),[40],-0.308
same,glycan array binding signal (z-score),[41],-0.089
same,glycan array binding signal (z-score),[42],-0.114
same,glycan array binding signal (z-score),[43],-0.297
same,glycan array binding signal (z-score),[44],-0.361
same,glycan array binding signal (z-score),[45],-0.216
